Measured values as given in US10299477B2 (priority 2015, dated 2019).

Tests used:
Assay type in all cases: in vivo
Botrytis cinerea = experiment: Test Example B: Gray mold on tomato; settings: for Test B (control value class, gray mold on tomato): in vivo; for Test B control value (gray mold on tomato): preventive, control value class
From the text: [Test Example B] Gray Mold on Tomato
Seeds of a test plant (tomato variety: Oogata Fukuju) were planted followed by cultivating until three to five first leaves (true leaves) appeared.

Alternaia brassicicola = experiment: Test Example C: Alternaria sooty spot on cabbage; settings: for Test C (control value class) / Test C control value: Alternaria sooty spot on cabbage; for Test C (control value class, Alternaria sooty spot on cabbage): in vivo; for Test C control value (Alternaria sooty spot on cabbage): preventive, control value class
From the text: [Test Example C] Alternaria Sooty Spot on Cabbage
Seeds of a test plant (cabbage variety: Shikidori) were planted followed by cultivating until the cotyledons extended.

[1] = system: Blumeria graminis f sp. hordei; experiment: Test Example D: Powdery mildew on barley; settings: for Test D (control value class, powdery mildew on barley): in vivo; for Test D control value (powdery mildew on barley): preventive, control value class
From the text: [Test Example D] Powdery Mildew on Barley
After the sprayed dilutions were dried, conidia of Blumeria graminis f sp. hordei were inoculated to the plants by shaking off.

Puccinia recondita = experiment: Test Example E: Brown rust on wheat; settings: for Test E (control value class, brown rust on wheat): in vivo; for Test E control value (brown rust on wheat): preventive, control value class
From the text: [Test Example E] Brown Rust on Wheat

Plasmopara viticola = experiment: Test Example G: Downy mildew on vine; settings: for Test G (control value class): 250 ppm spray; for Test G (control value class, downy mildew on vine): 250 ppm, sprayed 2.5 ml/pot before inoculation; for Test G control value (downy mildew on vine): 250 ppm spray (2.5 ml/pot), preventive, control value class; for Test G control value: 250 ppm sprayed before inoculation
From the text: [Test Example G] Downy Mildew on Vine
Seeds of a test plant (grape variety: Neomuscat) were planted followed by cultivating until three to four first leaves appeared. […] After the sprayed dilutions were dried, a zoosporangia suspension (1-2×10^4 zoosporangia/ml) of Plasmopara viticola was inoculated to the plants by spraying.

[2] = gray mold on tomato, Botrytis cinerea, 250 ppm spray
[3] = powdery mildew on barley, 250 ppm spray
[4] = brown rust on wheat, Puccinia recondita, 250 ppm spray
[5] = downy mildew on vine, Plasmopara viticola, 7-10 days after inoculation
[6] = evaluated 7-10 days after inoculation
[7] = Downy mildew on vine, 7-10 days after inoculation
[8] = Gray mold on tomato, control value=100{1-(n/3)}
[9] = Powdery mildew on barley, control value=100{1-(n/3)}
[10] = Brown rust on wheat, control value=100{1-(n/3)}
[11] = Downy mildew on vine, 2.5 ml/pot, evaluated 7-10 days after inoculation

## O=c1ccc(-c2cc(F)cc(F)c2Cl)c(-c2c(F)cccc2F)n1CC(F)F [Compound 555]
Botrytis cinerea; [2]
  Test B (control value class): H (H shows more than 50% of control values)
Alternaia brassicicola; 250 ppm spray
  Test C (control value class): H (H shows more than 50% of control values)
[1]; [3]
  Test D (control value class): H (H shows more than 50% of control values)
Puccinia recondita; [4]
  Test E (control value class): H (H shows more than 50% of control values)
Plasmopara viticola; [5]
  Test G (control value class): L (L shows 50% or less of control values)

## CCn1c(-c2c(F)cc(OC)cc2F)c(-c2cccc(F)c2F)cc(C)c1=O [Compound 610]
Botrytis cinerea
  Test B (control value class, gray mold on tomato): H (H shows more than 50% of control values)
Alternaia brassicicola
  Test C (control value class, Alternaria sooty spot on cabbage): H (H shows more than 50% of control values)
[1]
  Test D (control value class, powdery mildew on barley): H (H shows more than 50% of control values)
Puccinia recondita
  Test E (control value class, brown rust on wheat): H (H shows more than 50% of control values)
Plasmopara viticola; [6]
  Test G (control value class, downy mildew on vine): L (L shows 50% or less of control values)

## CCn1c(-c2c(F)cccc2F)c(-c2ccc(Cl)cc2)cc(Cl)c1=O [Compound 266]
Botrytis cinerea; 250 ppm spray
  Test B control value (gray mold on tomato): L (L shows 50% or less of control values)
Alternaia brassicicola; 250 ppm spray
  Test C control value (Alternaria sooty spot on cabbage): H (H shows more than 50% of control values)
[1]; 250 ppm spray
  Test D control value (powdery mildew on barley): L (L shows 50% or less of control values)
Puccinia recondita; 250 ppm spray
  Test E control value (brown rust on wheat): L (L shows 50% or less of control values)
Plasmopara viticola; 7-10 days after inoculation
  Test G control value (downy mildew on vine): L (L shows 50% or less of control values)

## CCn1c(-c2c(F)cc(OC)cc2F)c(-c2cccc(OC)c2Cl)cc(Cl)c1=O [Compound 640]
Botrytis cinerea
  Test B (control value class, gray mold on tomato): H (H shows more than 50% of control values)
Alternaia brassicicola
  Test C (control value class, Alternaria sooty spot on cabbage): H (H shows more than 50% of control values)
[1]
  Test D (control value class, powdery mildew on barley): H (H shows more than 50% of control values)
Puccinia recondita
  Test E (control value class, brown rust on wheat): H (H shows more than 50% of control values)
Plasmopara viticola; [6]
  Test G (control value class, downy mildew on vine): H (H shows more than 50% of control values)

## CCn1c(-c2c(F)cc(F)cc2F)c(-c2ccccc2F)ccc1=O [Compound 527]
Botrytis cinerea; [2]
  Test B (control value class): H (H shows more than 50% of control values)
Alternaia brassicicola; 250 ppm spray
  Test C (control value class): H (H shows more than 50% of control values)
[1]; [3]
  Test D (control value class): H (H shows more than 50% of control values)
Puccinia recondita; [4]
  Test E (control value class): H (H shows more than 50% of control values)
Plasmopara viticola; [5]
  Test G (control value class): H (H shows more than 50% of control values)

## CCN1C(=O)CCC(c2cc(OC)cc(OC)c2)=C1c1c(F)cccc1Br [Compound 174]
Botrytis cinerea; Gray mold on tomato
  Test B control value: H (H shows more than 50% of control values)
Alternaia brassicicola
  Test C control value: H (H shows more than 50% of control values)
[1]; Powdery mildew on barley
  Test D control value: L (L shows 50% or less of control values)
Puccinia recondita; Brown rust on wheat
  Test E control value: H (H shows more than 50% of control values)
Plasmopara viticola; [7]
  Test G control value: H (H shows more than 50% of control values)

## COc1cc(F)c(-c2c(-c3cc(F)cc(F)c3Br)cc(Cl)c(=O)n2C)c(F)c1 [Compound 824]
Botrytis cinerea; [8]
  Test B (control value class): H (H shows more than 50% of control values)
Alternaia brassicicola; control value=100{1-(n/3)}
  Test C (control value class): H (H shows more than 50% of control values)
[1]; [9]
  Test D (control value class): H (H shows more than 50% of control values)
Puccinia recondita; [10]
  Test E (control value class): H (H shows more than 50% of control values)
Plasmopara viticola; [11]
  Test G (control value class): H (H shows more than 50% of control values)

## COc1cccc(-c2ccc(=O)n(C)c2-c2c(F)cccc2F)c1Cl [Compound 784]
Botrytis cinerea; [8]
  Test B (control value class): H (H shows more than 50% of control values)
Alternaia brassicicola; control value=100{1-(n/3)}
  Test C (control value class): H (H shows more than 50% of control values)
[1]; [9]
  Test D (control value class): H (H shows more than 50% of control values)
Puccinia recondita; [10]
  Test E (control value class): H (H shows more than 50% of control values)
Plasmopara viticola; [11]
  Test G (control value class): H (H shows more than 50% of control values)

## COc1cc(OC)c(Cl)c(-c2ccc(=O)n(C)c2-c2c(F)cc(F)cc2F)c1 [Compound 136, 5-(2-chloro-3,5-dimethoxyphenyl)-1-methyl-6-(2,4,6-trifluorophenyl)pyridine-2(1H)-one]
Botrytis cinerea; Gray mold on tomato
  Test B control value: H (H shows more than 50% of control values)
Alternaia brassicicola
  Test C control value: H (H shows more than 50% of control values)
[1]; Powdery mildew on barley
  Test D control value: H (H shows more than 50% of control values)
Puccinia recondita; Brown rust on wheat
  Test E control value: H (H shows more than 50% of control values)
Plasmopara viticola; [7]
  Test G control value: H (H shows more than 50% of control values)

## CCn1c(-c2c(F)cc(OC)cc2F)c(-c2cc(F)ccc2Cl)cc(Br)c1=O [Compound 476, 3-bromo-5-(2-chloro-5-fluorophenyl)-6-(2,6-difluoro-4-methoxyphenyl)-1-ethylpyridine-2(1H)-one]
Botrytis cinerea; [2]
  Test B (control value class): H (H shows more than 50% of control values)
Alternaia brassicicola; 250 ppm spray
  Test C (control value class): H (H shows more than 50% of control values)
[1]; [3]
  Test D (control value class): H (H shows more than 50% of control values)
Puccinia recondita; [4]
  Test E (control value class): H (H shows more than 50% of control values)
Plasmopara viticola; [5]
  Test G (control value class): L (L shows 50% or less of control values)

## CCn1c(-c2c(F)cccc2F)c(-c2ccc(OC)cc2)cc(Cl)c1=O [Compound 302]
Botrytis cinerea; 250 ppm spray
  Test B control value (gray mold on tomato): H (H shows more than 50% of control values)
Alternaia brassicicola; 250 ppm spray
  Test C control value (Alternaria sooty spot on cabbage): H (H shows more than 50% of control values)
[1]; 250 ppm spray
  Test D control value (powdery mildew on barley): H (H shows more than 50% of control values)
Puccinia recondita; 250 ppm spray
  Test E control value (brown rust on wheat): H (H shows more than 50% of control values)
Plasmopara viticola; 7-10 days after inoculation
  Test G control value (downy mildew on vine): L (L shows 50% or less of control values)

## CCn1c(-c2c(F)cccc2Cl)c(-c2cc(OC)cc(OC)c2Cl)ccc1=O [Compound 152]
Botrytis cinerea; Gray mold on tomato
  Test B control value: H (H shows more than 50% of control values)
Alternaia brassicicola
  Test C control value: H (H shows more than 50% of control values)
[1]; Powdery mildew on barley
  Test D control value: H (H shows more than 50% of control values)
Puccinia recondita; Brown rust on wheat
  Test E control value: H (H shows more than 50% of control values)
Plasmopara viticola; [7]
  Test G control value: H (H shows more than 50% of control values)

## COc1ccc(-c2ccc(=O)n(C)c2-c2c(F)cc(F)cc2F)c(Cl)c1 [Compound 756]
Botrytis cinerea; [8]
  Test B (control value class): H (H shows more than 50% of control values)
Alternaia brassicicola; control value=100{1-(n/3)}
  Test C (control value class): H (H shows more than 50% of control values)
[1]; [9]
  Test D (control value class): H (H shows more than 50% of control values)
Puccinia recondita; [10]
  Test E (control value class): H (H shows more than 50% of control values)
Plasmopara viticola; [11]
  Test G (control value class): H (H shows more than 50% of control values)

## CCn1c(-c2c(F)cncc2F)c(-c2cc(OC)cc(OC)c2)ccc1=O [Compound 215]
Botrytis cinerea; 250 ppm spray
  Test B control value (gray mold on tomato): H (H shows more than 50% of control values)
Alternaia brassicicola; 250 ppm spray
  Test C control value (Alternaria sooty spot on cabbage): H (H shows more than 50% of control values)
[1]; 250 ppm spray
  Test D control value (powdery mildew on barley): H (H shows more than 50% of control values)
Puccinia recondita; 250 ppm spray
  Test E control value (brown rust on wheat): H (H shows more than 50% of control values)
Plasmopara viticola; 7-10 days after inoculation
  Test G control value (downy mildew on vine): H (H shows more than 50% of control values)

## CCn1c(-c2c(F)cccc2F)c(-c2cc(F)cc(F)c2Cl)cc(Cl)c1=O [Compound 552]
Botrytis cinerea; [2]
  Test B (control value class): H (H shows more than 50% of control values)
Alternaia brassicicola; 250 ppm spray
  Test C (control value class): H (H shows more than 50% of control values)
[1]; [3]
  Test D (control value class): H (H shows more than 50% of control values)
Puccinia recondita; [4]
  Test E (control value class): H (H shows more than 50% of control values)
Plasmopara viticola; [5]
  Test G (control value class): L (L shows 50% or less of control values)

## CCn1c(-c2c(F)cc(OC)cc2F)c(-c2cc(F)cc(F)c2F)ccc1=O [Compound 548]
Botrytis cinerea; [2]
  Test B (control value class): H (H shows more than 50% of control values)
Alternaia brassicicola; 250 ppm spray
  Test C (control value class): H (H shows more than 50% of control values)
[1]; [3]
  Test D (control value class): H (H shows more than 50% of control values)
Puccinia recondita; [4]
  Test E (control value class): H (H shows more than 50% of control values)
Plasmopara viticola; [5]
  Test G (control value class): L (L shows 50% or less of control values)
